According to PubChem BioAssay AID686979 (National Center for Advancing Translational Sciences (NCATS), 2013):
About 50,000 (12%) of roughly 420,000 compounds were called active. This list was built around the results that the source calls inconclusive (neither active nor inactive); the mix of calls is not that of the screen. Calls follow the shape of the dose curve; as a rule, active = well fitted inhibition curve with a large enough effect; inconclusive = small, poorly fitted or top-dose-only effect; inactive = flat fitted curve, though single readings scatter. Potencies of inconclusive entries are left out as doubtful fits.

Assay: qHTS for Inhibitors of human tyrosyl-DNA phosphodiesterase 1 (TDP1): qHTS in cells in presence of CPT; also: nearly all actives have a fitted effect of over 55% in size
Conditions: chicken DT40 Tdp1-/-;hTDP1 cells + 20 nM CPT, ATP luminescence, 48 h; activity change, negative = growth inhibition: at 46.2 µM (top of the series) unless noted
Method in brief: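 Chicken DT40 Tdp1-/- cells stably complemented with human TDP1 were seeded at 400 cells/well in medium containing 20 nM camptothecin, exposed to pin-transferred compounds, and grown at 37 °C for at least 48 hr. Viability was read as ATP luminescence.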
% is scaled to controls: 0 for no effect and ±100 for the full control effect; potency is read from the fitted curve at half-maximal effect; tags tell the direction and shape of the fitted curve.

SMILES | Potency | activity change, negative = growth inhibition
O=c1o[nH]c(-c2ccccc2)c1-c1ccccc1 | inactive | 
COc1ccc(CNC(=O)c2cc3c(=O)n(C)c4ccccc4c3n2C)cc1 | inactive | 
CC(C)(C)c1ccc(C(=O)C[n+]2cccc3cc(Cl)ccc32)cc1 | active: 5.01 µM | 
Cc1c(OCC(=O)NCc2ccccn2)ccc2c(-c3ccccc3)cc(=O)oc12 | inactive | 
Cc1ccc(NC(=O)C2CCCN2C(=O)Oc2ccccc2)cc1C (configuration not stated) | inactive | 
CCC(C)N1C(=O)S/C(=C/c2ccc(N3CCOCC3)cc2C)C1=O (configuration not stated) | active: 20.6 µM | 
COc1ccc2sc(N(CCN(C)C)C(=O)c3ccc4ccccc4c3)nc2c1 | inactive | 
O=[N+]([O-])c1cccc(S(=O)(=O)Nc2ccc(Cc3ccncc3)cc2)c1 | inconclusive [inhibitor, partial curve] | 
Cc1nc2cc(F)ccc2n1C1CCN(C(=O)c2ccc(F)cc2F)CC1 | inconclusive [inhibitor, single point] | 
Cc1ccc(CNC(=O)CCC(=O)N2CC(C)Oc3ccc(Cl)cc32)cc1 (configuration not stated) | inconclusive [inhibitor, partial curve, poor fit] | 
COc1ccccc1CNC(=O)Cc1ccc(C)cc1 | inconclusive [inhibitor, single point] | 
O=C(Cc1ccccc1)N(Cc1cccnc1)c1nc2ccc(F)cc2s1 | inconclusive [inhibitor, single point] | 
CSc1ccccc1C(=O)Nc1ccc(C)c(C)c1 | inconclusive [inhibitor, single point] | 
O=S(=O)(CCN1CCOCC1)c1ccc(OC(F)(F)F)cc1 | inactive | 
Cc1nc(-c2cccc(S(=O)(=O)N3CC(C)OC(C)C3)c2)cs1 (configuration not stated) |  | inconclusive: -34.6% [inhibitor]
O=C(CSc1ccccc1)NCc1ccc2c(c1)CCN2C(=O)c1ccc(F)cc1 | inactive | 
CCOC(=O)c1ccc(N2C(=O)c3[nH]nc(-c4ccc(OCC)cc4)c3C2c2ccc(OC)cc2OC)cc1 (configuration not stated) | active: 20.6 µM | 
COc1ccccc1CNC1CCN(Cc2ccccc2)CC1 | inconclusive [inhibitor, single point] | 
O=C1C(Nc2ccccc2)=CC(c2ccc(O)cc2)N1c1ccccc1 (configuration not stated) | inconclusive [inhibitor, single point] | 
CCOc1cc(C2CC(=O)Nc3nc(SCc4ccccc4)[nH]c(=O)c32)ccc1O (configuration not stated) |  | inconclusive: -30.4% [inhibitor]
Cn1[nH]c(C(F)(F)F)c(C=Nc2ccc(Cl)cc2)c1=O | inactive | 
CCc1ccc(CNC(=O)CCCN2C(=O)c3cccnc3Oc3ccc(Cl)cc32)cc1 | active: 20.6 µM | 
